# Test results published in a collection of fitness landscapes (doi:10.1038/s41467-024-54723-y).
# Over roughly 18,000 sequences, “TetR repression strength (sort-seq, GFP reporter)” has its median near 0.23; the highest 2% begin near 0.68. The list shows a part of the results.
# Biological target: TetR (class B, Tn10) (UniProt P04483)
# Experiment: TetR repression strength (sort-seq, GFP reporter) (relative to tetO2 = 1); higher = stronger repression
# Conditions: E. coli
# How it was run: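 In LB with 50 µg/mL chloramphenicol, E. coli SIG10-MAX holding a low-copy library with eight randomized operator positions between a constitutive promoter and sfGFP, plus constitutive TetR, grew for 5 h at 37 °C. FACS then sorted 10^6 cells into 13 fluorescence bins for Illumina sequencing of each bin. Repression strength equals the top bin index plus one less the read-weighted mean bin, normalized to the unaltered operator. Values from three independent transformations were averaged when reads were ≥30 in every replicate and the CV was ≤0.5.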
# UniProt P04483, sequence (P04483 whole entry): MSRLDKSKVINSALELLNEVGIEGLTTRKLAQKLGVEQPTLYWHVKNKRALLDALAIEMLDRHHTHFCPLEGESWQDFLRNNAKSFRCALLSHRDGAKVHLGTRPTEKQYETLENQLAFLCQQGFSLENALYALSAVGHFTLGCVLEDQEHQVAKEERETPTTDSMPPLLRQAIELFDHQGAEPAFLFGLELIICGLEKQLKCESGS
row,Sequence,TetR repression strength
1,TCCCCCAGAGTTAGGGAGA,0.13
2,TCCCTCGAAGTTGGGGAGA,0.266
3,TCCCCACTAGTAGACGAGA,0.407
4,TCCCGCGCAGTACCGGAGA,0.085
5,TCCCGAGTAGTCGCAGAGA,0.599
6,TCCCGGTTAGTTCCGGAGA,0.292
7,TCCCGGGGAGTGAGGGAGA,0.214
8,TCCCTTGAAGTGGTCGAGA,0.399
9,TCCCCTACAGTGCTTGAGA,0.0462
10,TCCCTAAAAGTATAGGAGA,0.142
11,TCCCTTGGAGTTTCGGAGA,0.336
12,TCCCCGGCAGTAACCGAGA,0.434
13,TCCCGTTCAGTGCTAGAGA,0.681
14,TCCCTTCCAGTGACTGAGA,0.29
15,TCCCAGTCAGTCGATGAGA,0.193
16,TCCCAGGTAGTCTAGGAGA,0.193
17,TCCCAATGAGTCAGGGAGA,0.24
18,TCCCGGTCAGTAACTGAGA,0.396
19,TCCCGAGTAGTCATGGAGA,0.092
20,TCCCTGATAGTTGCTGAGA,0.202
21,TCCCGAGGAGTCGTTGAGA,0.0424
22,TCCCGTATAGTGGATGAGA,0.086
23,TCCCATACAGTTCGGGAGA,0.0255
24,TCCCGGGGAGTTCAAGAGA,0.259
25,TCCCAGTAAGTGGCGGAGA,0.267
26,TCCCGGGCAGTGCGGGAGA,0.508

row,Sequence,TetR repression strength
1,TCCCCCATAGTGTTGGAGA,0.268
2,TCCCGTAAAGTTACGGAGA,0.0581
3,TCCCACCTAGTAGCTGAGA,0.207
4,TCCCCGGCAGTGTTCGAGA,0.207
5,TCCCCCTCAGTTTGCGAGA,0.518
6,TCCCTTTCAGTGATGGAGA,0.574
7,TCCCTTAAAGTATTCGAGA,0.311
8,TCCCCTGTAGTGAGAGAGA,0.262
9,TCCCGATGAGTCGAAGAGA,0.562
10,TCCCGTCAAGTTCATGAGA,0.15
11,TCCCAGACAGTAGGGGAGA,0.151
12,TCCCCGGTAGTACGGGAGA,0.22
13,TCCCTATGAGTGTAGGAGA,0.227
14,TCCCTGTGAGTTTGGGAGA,0.424
15,TCCCTTTTAGTAGGAGAGA,0.196
16,TCCCAGGCAGTAAATGAGA,0.121
17,TCCCTGGTAGTGCTGGAGA,0.36
18,TCCCGTGTAGTTGTTGAGA,0.0138
19,TCCCCCGGAGTGGTTGAGA,0.192
20,TCCCACCCAGTCAATGAGA,0.783
21,TCCCCTACAGTTAAGGAGA,0.207
22,TCCCAGGAAGTTACGGAGA,0.242
23,TCCCGAGCAGTGTGAGAGA,0.175
24,TCCCTACTAGTTTCAGAGA,0.434
25,TCCCACGAAGTTGGAGAGA,0.199
26,TCCCATTCAGTATTCGAGA,0.407

row,Sequence,TetR repression strength
1,TCCCGCACAGTGTTGGAGA,0.152
2,TCCCGCGAAGTGGGTGAGA,0.236
3,TCCCCCCAAGTACATGAGA,0.0821
4,TCCCATTGAGTGCTTGAGA,0.36
5,TCCCACTGAGTGCTGGAGA,0.297
6,TCCCATCCAGTGGCAGAGA,0.632
7,TCCCAAGTAGTAGTGGAGA,0.184
8,TCCCTACAAGTTTAAGAGA,0.324
9,TCCCGACTAGTGGGTGAGA,0.598
10,TCCCAAACAGTCGTCGAGA,0.257
11,TCCCGGCAAGTGGTCGAGA,0.0682
12,TCCCCGGTAGTGACCGAGA,0.096
13,TCCCGCTGAGTCGGCGAGA,0.15
14,TCCCTAAGAGTGTGGGAGA,0.212
15,TCCCTATCAGTGATTGAGA,0.939
16,TCCCGCGGAGTTTGGGAGA,0.366
17,TCCCAATTAGTCGCAGAGA,0.213
18,TCCCGGCGAGTTCAGGAGA,0.164
19,TCCCAGCCAGTTTATGAGA,0.224
20,TCCCACCAAGTGGATGAGA,0.165
21,TCCCTGTGAGTTACGGAGA,0.168
22,TCCCTCCTAGTCAAAGAGA,0.153
23,TCCCGGCGAGTGACAGAGA,0.339
24,TCCCCATGAGTCGGGGAGA,0.0122
25,TCCCTCGTAGTCTGCGAGA,0.447
26,TCCCAAGAAGTGGTAGAGA,0.18

row,Sequence,TetR repression strength
1,TCCCTATCAGTTGTGGAGA,0.726
2,TCCCGGTTAGTTAAAGAGA,0.312
3,TCCCAGCCAGTGCGCGAGA,0.294
4,TCCCCGACAGTGCCCGAGA,0.419
5,TCCCGCGTAGTGTAAGAGA,0.404
6,TCCCCCTAAGTACGTGAGA,0.429
7,TCCCCGAAAGTATGAGAGA,0.209
8,TCCCGCTTAGTAGTCGAGA,0.24
9,TCCCACCGAGTAGGGGAGA,0.16
10,TCCCATGAAGTAGGGGAGA,0.095
11,TCCCAGACAGTCGTTGAGA,0.187
12,TCCCAGTCAGTTATTGAGA,0.368
13,TCCCATTAAGTTAACGAGA,0.323
14,TCCCATGGAGTCAGAGAGA,0.125
15,TCCCAGCGAGTTCGGGAGA,0.3
16,TCCCTGGGAGTTAGTGAGA,0.146
17,TCCCTAGTAGTCGCCGAGA,0.294
18,TCCCGTTCAGTGATGGAGA,0.589
19,TCCCAATAAGTCGTGGAGA,0.204
20,TCCCACGAAGTAAGGGAGA,0.394
21,TCCCAATGAGTGCAGGAGA,0.19
22,TCCCACAGAGTCCGAGAGA,0.282
23,TCCCATATAGTGGCAGAGA,0.186
24,TCCCCCATAGTTGGTGAGA,0.222
25,TCCCTAGGAGTAGGGGAGA,0.185
26,TCCCGCTAAGTTAGAGAGA,0.0216

row,Sequence,TetR repression strength
1,TCCCATGGAGTGGGGGAGA,0.141
2,TCCCTTCGAGTGCCCGAGA,0.399
3,TCCCCAGTAGTGAGTGAGA,0.217
4,TCCCTGGTAGTCGAGGAGA,0.292
5,TCCCGGTTAGTGAGGGAGA,0.216
6,TCCCTATTAGTAGTGGAGA,0.683
7,TCCCATGCAGTGGGTGAGA,0.167
8,TCCCGTCTAGTCTTTGAGA,0.366
9,TCCCGAGCAGTGACAGAGA,0.736
10,TCCCCGGGAGTCTAGGAGA,0.285
11,TCCCAACTAGTTTCAGAGA,0.351
12,TCCCTATAAGTTTTAGAGA,0.286
13,TCCCTACGAGTTGGCGAGA,0.466
14,TCCCAATTAGTGCGGGAGA,0.22
15,TCCCGGGAAGTGATTGAGA,0.261
16,TCCCAACGAGTGGTCGAGA,0.429
17,TCCCAGCAAGTCCAAGAGA,0.106
18,TCCCGCTGAGTTAGGGAGA,0.929
19,TCCCTAACAGTGAGGGAGA,0.165
20,TCCCTGGTAGTCCGTGAGA,0.13
21,TCCCCGTTAGTCTAAGAGA,0.0674
22,TCCCCGGGAGTTTGGGAGA,0.369
23,TCCCCCTAAGTGTGGGAGA,0.184
24,TCCCGTGGAGTTAGGGAGA,0.24
25,TCCCAGGAAGTCACGGAGA,0.259
26,TCCCAGGTAGTGTTAGAGA,0.388

row,Sequence,TetR repression strength
1,TCCCCCAAAGTATAAGAGA,0.364
2,TCCCGCACAGTCGACGAGA,0.0481
3,TCCCGCGGAGTCTGGGAGA,0.199
4,TCCCTCTCAGTAGAGGAGA,0.238
5,TCCCTACCAGTCAGGGAGA,0.189
6,TCCCAGTGAGTTGGGGAGA,0.31
7,TCCCAGCGAGTGGTAGAGA,0.263
8,TCCCTAAAAGTGTCTGAGA,0.246
9,TCCCCTAGAGTGAGGGAGA,0.0829
10,TCCCGTCGAGTCGTAGAGA,0.255
11,TCCCCTGTAGTGTAAGAGA,0.154
12,TCCCAGGGAGTCCAAGAGA,0.186
13,TCCCGACCAGTCGTAGAGA,0.348
14,TCCCTCTAAGTTTGGGAGA,0.239
15,TCCCTAACAGTGATAGAGA,0.816
16,TCCCAGTAAGTACCCGAGA,0.356
17,TCCCGCCCAGTGCTCGAGA,0.181
18,TCCCTGCGAGTCTAGGAGA,0.258
19,TCCCACTGAGTGGGTGAGA,0.27
20,TCCCTGCCAGTTCTGGAGA,0.256
21,TCCCGCACAGTATGGGAGA,0.364
22,TCCCAACCAGTGGGAGAGA,0.516
23,TCCCGCGAAGTGAGGGAGA,0.234
24,TCCCATAGAGTCTCTGAGA,0.426
25,TCCCCCGTAGTACGGGAGA,0.213
26,TCCCGCTGAGTTAGAGAGA,0.0464

row,Sequence,TetR repression strength
1,TCCCTGACAGTGGGGGAGA,0.146
2,TCCCCGTAAGTAGGGGAGA,0.194
3,TCCCGTTTAGTTGGAGAGA,0.304
4,TCCCAGATAGTGAAAGAGA,0.366
5,TCCCCGGGAGTGTAGGAGA,0.36
6,TCCCCGAAAGTGGTAGAGA,0.095
7,TCCCGTAGAGTTTGCGAGA,0
8,TCCCATTCAGTCAAAGAGA,0.308
9,TCCCTGTGAGTATCGGAGA,0.058
10,TCCCCCCTAGTGACAGAGA,0.624
11,TCCCATGGAGTATGCGAGA,0.286
12,TCCCTTGAAGTTCGGGAGA,0.176
13,TCCCAAATAGTGCGCGAGA,0.289
14,TCCCCTGGAGTCCCGGAGA,0.314
15,TCCCATGTAGTGCAAGAGA,0.318
16,TCCCTCCGAGTTTGTGAGA,0.507
17,TCCCCTCGAGTAGTTGAGA,0.231
18,TCCCTATGAGTTCGTGAGA,0.349
19,TCCCTATGAGTTGAAGAGA,0.326
20,TCCCTAAAAGTCCCCGAGA,0.275
21,TCCCCGCTAGTCTGAGAGA,0.201
22,TCCCGGAAAGTGCGGGAGA,0.181
23,TCCCGGACAGTGGAGGAGA,0.168
24,TCCCTCACAGTGAAAGAGA,0.252
25,TCCCACTCAGTCTAGGAGA,0.305
26,TCCCTGACAGTACTAGAGA,0.533

row,Sequence,TetR repression strength
1,TCCCGTTGAGTATGGGAGA,0.308
2,TCCCGTGTAGTTCCTGAGA,0.112
3,TCCCGCGGAGTGGTCGAGA,0.127
4,TCCCTCTTAGTCTCCGAGA,0.341
5,TCCCGCCCAGTCGATGAGA,0.221
6,TCCCACAGAGTGCTTGAGA,0.408
7,TCCCCAGTAGTAGTGGAGA,0.246
8,TCCCGCAGAGTTCCAGAGA,0.262
9,TCCCTGCTAGTGGCTGAGA,0.136
10,TCCCGCTAAGTAGATGAGA,0.00942
11,TCCCGGCTAGTACGAGAGA,0.453
12,TCCCTTTGAGTGGTGGAGA,0.245
13,TCCCGGGTAGTAGCGGAGA,0.555
14,TCCCGGCAAGTTGAAGAGA,0.146
15,TCCCGCCGAGTCCTCGAGA,0.35
16,TCCCCGAGAGTGCGGGAGA,0.111
17,TCCCGGTTAGTCCCGGAGA,0.185
18,TCCCTGAAAGTGTGTGAGA,0.233
19,TCCCTGCCAGTTTGCGAGA,0.207
20,TCCCAAGGAGTGGAAGAGA,0.323
21,TCCCGATCAGTGTTAGAGA,0.556
22,TCCCCCTTAGTTGATGAGA,0.289
